{
  "source": "patent US20170306038A1",
  "about": "“COMPOSITIONS AND METHODS OF USE FOR AUGMENTED IMMUNE RESPONSE AND CANCER THERAPY” (priority 2014, published 2017)",
  "molecules": {"B1": {"name": "MAB4: Humaneered human GITR agonist antibody, IgG1 kappa; heavy chain SEQ ID NO:73, light chain SEQ ID NO:66 (antibody)", "heavy": "EVQLVESGGGLVQSGGSLRLSCAASGFSLSSYGVDWVRQAPGKGLEWVGVIWGGGGTYYASSLMGRFTISRDNSKNTLYLQMNSLRAEDTAVYYCAKHAYGHDGGFAMDYWGQGTLVTVSSASTKGPSVFPLAPSSKSTSGGTAALGCLVKDYFPEPVTVSWNSGALTSGVHTFPAVLQSSGLYSLSSVVTVPSSSLGTQTYICNVNHKPSNTKVDKRV[human IgG1 Fc not printed]", "light": "EIVMTQSPATLSVSPGERATLSCRASESVSSNVAWYQQRPGQAPRLLIYGASNRATGIPARFSGSGSGTDFTLTISRLEPEDFAVYYCGQSYSYPFTFGQGTKLEIKRTVAAPSVFIFPPSDEQLKSGTASVVCLLNNFYPREAKVQWKVDNALQSGNSQESVTEQDSKDSTYSLSSTLTLSKADYEKHKVYACEVTHQGLSSPVTKSFNRGEC"}, "B2": {"name": "MAB8: MAB4 variant with glycation site KH changed to RN; heavy chain SEQ ID NO:106, light chain SEQ ID NO:66 (antibody)", "heavy": "B1 heavy with K97R, H98N", "light": "B1 light"}, "B3": {"name": "MAB5: Humaneered human GITR agonist antibody, IgG1 kappa; heavy chain SEQ ID NO:75, light chain SEQ ID NO:66 (antibody)", "heavy": "B1 heavy with V48L, A60T", "light": "B1 light"}},
  "key": {"hGITR [1]": {"molecular_target": "T1, hGITR (Homo sapiens, UniProt Q9Y5U5)", "T1 sequence (Q9Y5U5 26-241)": "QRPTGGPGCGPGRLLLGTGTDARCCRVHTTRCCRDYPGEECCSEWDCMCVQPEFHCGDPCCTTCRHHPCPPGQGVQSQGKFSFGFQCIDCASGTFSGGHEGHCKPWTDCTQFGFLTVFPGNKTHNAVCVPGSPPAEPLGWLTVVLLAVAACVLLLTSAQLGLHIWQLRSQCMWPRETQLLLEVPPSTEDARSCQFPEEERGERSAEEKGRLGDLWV", "test": "NFκB-Luciferase reporter gene assay, 293 cells with human GITR", "assay_type": "cell-based", "design": "expressed in transfected cells; host or cells: HEK-293 (293) cells", "conditions": "antibodies crosslinked", "procedure": "(§1) To generate the 293-hGITR-NFκB reporter gene cells line, 293 cells were stably transfected with an NFκB-Luciferase reporter gene and human GITR (or cyno GITR). Activation of the GITR signaling pathway in these cells was determined by measuring the levels of luciferase induced within the cells after a 24 hour incubation with GITR-L or agonistic antibody. To assess the effects of cross-linking Abs, they were incubated with an excess of a F(ab′)2 goat anti-human Fcγ fragment specific antibody or protein A before using in the reporter gene assay.\n(§2) Functional activity of MABs were tested in an NFkB reporter gene assay for agonist activity. MAB was diluted to 6 μg/mL in PBS and incubated for 30 minutes at room temperature in the presence/absence of a 3 fold excess of F(ab′)2 fragment goat anti-human Fcγ specific crosslinker. Alternatively, MAB was diluted to 6 μg/mL in PBS and incubated for 30 minutes at room temperature in the presence/absence of a 2 fold excess of Protein A. 10 μL of incubated MAB was then added to a 384 well white clear bottomed assay plate. A HEK-293 cell line stably transfected with hGITR and a NFκB reporter gene was diluted to 5×10^5 cells/mL and 20 μL of the cell suspension was added to each well. The plate was incubated for 24 hours in a 37° C. tissue culture incubator. 30 μL of Cell Bright Glo was added to each well and the plate was read for luminescence on the Acquest."}, "hGITR [2]": {"molecular_target": "T1, hGITR", "test": "Biacore binding affinity to human GITR", "conditions": "in words", "from_the_text": "(§3) The anti-GITR agonist antibodies of the invention bind selectively to human and cyno GITR in a number of biochemical assays, including flow cytometry, ELISA, Biacore, and Protagen™ chip assays."}, "cyno GITR": {"system": "cyno GITR", "test": "NFκB-Luciferase reporter gene assay, 293 cells with cyno GITR", "assay_type": "cell-based, cynomolgus", "conditions": "293 cells stably transfected with cyno GITR; antibodies cross-linked", "procedure": "as §1\nas §2, with “The plate was incubated for 24 hours in a 37° C. tissue culture incubator.” left out"}, "panel of human TNFRs": {"system": "panel of human TNFRs", "test": "Specificity ELISA on TNFRSF family members", "assay_type": "binding", "conditions": "IgGs", "procedure": "For the specificity ELISA, a crude cell lysate was made from bacteria expressing members of the TNFRSF family. To prevent nonspecific binding to the plate 50 μL of 5% BSA was added per mL of bacterial lysate. A HisGrab Nickel 96-well plate (Pierce #15142) was coated with TNFRSF containing bacterial lysate at 100 μL of lysate/BSA per well and incubated for 1 hour at room temperature. The plate was then rinsed three times with PBST, then MAB was diluted to 0.5 μg/mL in 10% FBS in PBS and 100 μL was added to each well. The plate was incubated for 1 hour at room temperature and then rinsed three times with PBST. Anti-human kappa antibody (Sigma #A7164) conjugated to HRP was diluted 1:5000 in 1:1 PBST: 10% FBS in PBS and 100 μL added to each well. The plate was incubated for 1 hour at room temperature, and then washed three times with PBST. 100 μL of SureBlue TMB substrate was added to each well and the plate was incubated for about 10 min at room temperature before stopping the reaction with 100 μL/well of 2N H2SO4. The plate was read at 450 nm in a spectrophotometer."}, "rodent GITR": {"system": "rodent GITR", "test": "ELISA binding to GITR extracellular domain, rodent", "design": "species or system rat, mouse", "procedure": "(§4) Binding of the MABs to GITR from various species, various alanine mutant constructs or GITR extracellular domain—was assessed using a 384-well plate was coated with rat, mouse, human or cyno GITR extracellular domain (ECD) at 50 ng per well and incubated overnight at 4° C. The plate was blocked with a solution of 1% BSA in PBS for one hour at room temperature and then rinsed three times with PBST. The MAB was then diluted to 0.5 μg/mL or 1 μg/mL in PBS and 20 μL was added to each well. The plate was incubated for 1 hour at room temperature and then washed three times with PBST. Anti-human kappa antibody (Sigma #A7164), anti-human gamma antibody (Jackson Immunoresearch 109-036-098), goat anti-mouse antibody (Jackson ImmunoResearch 115-035-071) conjugated to HRP was diluted 1:5000 in Blocking Buffer (25 μL) and added to each well, or a hrp conjugated HIS antibody (QIAGEN 1014992) diluted 1:1000 in Blocking Buffer was added. The plate was incubated for 1 hour at room temperature, and then washed six times with PBST. 25 μL of SureBlue TMB (KPL 52-00-02) substrate was added to each well and the plate was incubated for about 10 min at room temperature. Plates were read at 650 nm in a spectrophotometer."}, "human GITR": {"molecular_target": "T2, human GITR (Homo sapiens, UniProt Q9Y5U5)", "T2 construct": "coated with rat, mouse, human or cyno GITR extracellular domain (ECD) at 50 ng per well", "T2 sequence (Q9Y5U5 26-162 limits assumed)": "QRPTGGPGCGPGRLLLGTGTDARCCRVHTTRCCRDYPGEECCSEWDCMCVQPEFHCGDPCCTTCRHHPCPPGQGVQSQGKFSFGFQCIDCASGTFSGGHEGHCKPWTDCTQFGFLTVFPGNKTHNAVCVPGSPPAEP", "test": "ELISA binding to GITR extracellular domain, human", "procedure": "as §4"}, "cGITR": {"molecular_target": "cGITR", "test": "Biacore binding affinity to cyno GITR", "design": "species or system cynomolgus", "conditions": "in words", "from_the_text": "as §3"}, "cynomolgus GITR": {"system": "cynomolgus GITR", "test": "ELISA binding to GITR extracellular domain, cyno", "procedure": "as §4"}},
  "note": "Changes are numbered by the printed parent chain.",
  "data": [
    {"molecule": "B1", "values": [
      {"measurement": "NFκB activity / intracellular signaling", "setting": "hGITR [1]", "result": "induce NFκB activity when crosslinked, at levels similar to GITR ligand"},
      {"measurement": "binding affinities (KD) to human GITR", "setting": "hGITR [2]", "result": "subnanomolar"},
      {"measurement": "NFκB activation", "setting": "cyno GITR", "result": "promote NFκB activation"},
      {"measurement": "antigen specificity against a panel of human TNFRs", "setting": "panel of human TNFRs", "result": "retain high specificity for GITR"},
      {"measurement": "binding to rodent GITR in ELISA", "setting": "rodent GITR", "result": "not rodent GITR"},
      {"measurement": "binding to human GITR in ELISA", "setting": "human GITR", "result": "able to bind"},
      {"measurement": "binding affinities to cyno GITR", "setting": "cGITR", "result": "nanomolar"},
      {"measurement": "binding to cynomolgus GITR in ELISA", "setting": "cynomolgus GITR", "result": "able to bind"}
    ]},
    {"molecule": "B2", "values": [
      {"measurement": "NFκB activity / intracellular signaling", "setting": "hGITR [1]", "result": "induce NFκB activity when crosslinked, at levels similar to GITR ligand"}
    ]},
    {"molecule": "B3", "values": [
      {"measurement": "NFκB activity / intracellular signaling", "setting": "hGITR [1]", "result": "induce NFκB activity when crosslinked, at levels similar to GITR ligand"},
      {"measurement": "binding affinities (KD) to human GITR", "setting": "hGITR [2]", "result": "subnanomolar"},
      {"measurement": "NFκB activation", "setting": "cyno GITR", "result": "promote NFκB activation"},
      {"measurement": "antigen specificity against a panel of human TNFRs", "setting": "panel of human TNFRs", "result": "retain high specificity for GITR"},
      {"measurement": "binding to rodent GITR in ELISA", "setting": "rodent GITR", "result": "not rodent GITR"},
      {"measurement": "binding to human GITR in ELISA", "setting": "human GITR", "result": "able to bind"},
      {"measurement": "binding affinities to cyno GITR", "setting": "cGITR", "result": "nanomolar"},
      {"measurement": "binding to cynomolgus GITR in ELISA", "setting": "cynomolgus GITR", "result": "able to bind"}
    ]}
  ]
}
